The campaign covered roughly 110,000 compounds. About 230 (0.21%) showed an effect of 50% or more. The list shows a part of the results.
The molecules below were run against DPAP1 (Plasmodium falciparum, UniProt Q8IIJ9) (assay: primary screen, percent inhibition; read by cleavage of a fluorogenic dipeptide substrate; higher = more effect of the substance).
Design: species or system P. falciparum D10 trophozoite lysates; single well
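Note: 30 min substrate incubation versus DMSO and 10 µM JCP410 controls.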

Sequence of DPAP1 (Q8IIJ9 whole entry, looked up): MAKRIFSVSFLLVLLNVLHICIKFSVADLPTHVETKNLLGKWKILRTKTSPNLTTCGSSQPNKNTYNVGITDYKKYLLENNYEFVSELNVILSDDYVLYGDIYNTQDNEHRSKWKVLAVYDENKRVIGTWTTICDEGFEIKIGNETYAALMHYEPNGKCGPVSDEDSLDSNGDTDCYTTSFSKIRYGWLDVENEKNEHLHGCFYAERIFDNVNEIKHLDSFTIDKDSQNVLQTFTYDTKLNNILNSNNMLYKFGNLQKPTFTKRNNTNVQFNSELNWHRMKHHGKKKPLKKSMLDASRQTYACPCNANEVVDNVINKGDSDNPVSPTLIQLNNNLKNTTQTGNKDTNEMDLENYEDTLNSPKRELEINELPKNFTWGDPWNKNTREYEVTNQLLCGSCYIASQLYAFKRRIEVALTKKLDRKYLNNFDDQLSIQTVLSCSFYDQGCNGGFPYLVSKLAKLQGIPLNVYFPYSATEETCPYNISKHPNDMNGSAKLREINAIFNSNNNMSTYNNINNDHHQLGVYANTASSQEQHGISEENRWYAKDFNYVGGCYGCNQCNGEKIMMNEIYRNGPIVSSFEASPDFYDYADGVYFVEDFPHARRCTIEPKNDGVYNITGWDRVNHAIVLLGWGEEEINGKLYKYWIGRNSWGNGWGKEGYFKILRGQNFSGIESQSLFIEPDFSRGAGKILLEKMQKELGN

Structure (SMILES)	% Inhibition @ 10 uM [%]
O=C(c1cccs1)N(C1CCCCC1)C1CCCCC1	2.6
CC(c1ccc(O)cc1)N1C(=O)c2ccccc2C1=O (stereo not drawn)	-0.403
O=C(c1ccccc1)N1CC(COc2ccccc2)OC(c2ccoc2)O1 (stereo not drawn)	-4
Cc1nn(-c2ccccc2)c(Cl)c1/C=N/n1c(S)nnc1-c1ccccc1	2.56
O=S(=O)(Nc1ccccc1)c1ccc(F)cc1	-1.22
CC(C)(C)NC(=O)CN(Cc1ccc(F)cc1)S(=O)(=O)c1ccccc1	-1.17
CC(C)CNc1ncnc2c1cnn2C	-1.1
COCCCNc1nc2c(c(=O)n(C)c(=O)n2C)n1C	-7.08
CS(=O)(=O)c1ccc2nc(NC(=O)c3ccc(Cn4cc(Br)cn4)o3)sc2c1	4.39
CC(C)(C)c1ccc(OCc2nn3c(-c4ccccc4)nnc3s2)cc1	-4.02
Cc1ccnc(-n2c(C)cc(/C=C3\NC(=O)N(Cc4ccc(Cl)cc4)C3=O)c2C)c1	-4.93
CCCCCOc1ccc(C2SCC(=O)Nc3c2c(O)nn3C2CCOC(C)(C)C2)cc1 (stereo not drawn)	4.54
COc1ccc(-c2noc(-c3cccc(Br)c3)n2)cc1	-0.795
CCN(CC)c1cc(-n2nc(C)cc2C)nc(-c2ccccc2)n1	6.89
Cc1[nH]c2ccc(C(=O)NCCCN3CCOCC3)cc2c1C	1.78
COc1cc2c(cc1OC)C(C)N(C(=O)Cn1ncc3c1-c1cc(C)ccc1OC3)CC2 (stereo not drawn)	-8.38
COCCNC1CCc2ccccc2C1 (stereo not drawn)	-1.82
CCc1ccc(-c2cn3c(n2)sc2cc(C(=O)NCc4cccnc4)ccc23)cc1	8.6
Oc1ccccc1-c1cc(-c2ccc(Br)cc2)[nH]n1	1.83
CCC(=O)N(CCc1ccc(OC)cc1)C1CC(=O)N(c2ccc(Br)cc2)C1=O (stereo not drawn)	-8.37
Cc1cc(-c2ccc(C)c(S(=O)(=O)N3CCN(CCOc4ccc(Cl)cc4)CC3)c2)on1	-5.87
N#CCNC(=O)[C@@H](CC1CCCCC1)NC(=O)OCc1ccccc1	-1.5
COc1cc(C(=O)NCCC(=O)NCCN(C)C)cc(OC)c1OC	-2.26
CCN(Cc1ccccc1)c1cc(C)c2ccc(Cl)cc2n1	1.83
O=C(Cn1ncc2c(Cl)cccc21)NC1CCCc2ccccc21 (stereo not drawn)	-4.71
CC(C)CC(C(=O)NCC#N)c1cccc(-c2cccc(C(=O)NCCN3CCOCC3)c2)c1 (stereo not drawn)	4.63

Structure (SMILES)	% Inhibition @ 10 uM [%]
CC1=C(C#N)C(C(F)(F)F)(C(F)(F)F)NC(c2cccnc2)=N1	-5.64
Cc1ccccc1CS(=O)(=O)Cc1ccc(C(=O)NC(C)C)o1	6.32
CC(C)(C)OC(=O)N1CCC(c2c(C(=O)NCc3ccccn3)cnn2-c2ccc(F)cc2F)CC1	-2.35
CCOc1cc(C2CC(=O)N3C(=C2C#N)SCC3(O)c2ccco2)ccc1O (stereo not drawn)	-5.36
O=c1cc(-c2ccccc2)c2cc(O)c(O)cc2o1	-2.41
Cc1nc2ccccc2c(=O)n1-c1ccncc1	8.19
CC(=O)N(C(C)=O)c1c(-c2ccccc2)c(C)nn1Cc1ccc(Cl)cc1	-1.68
CN1C(=O)c2ccccc2C(C(=O)Nc2ccc(Cl)cn2)C1c1cccs1 (stereo not drawn)	4.03
CCO/C(O)=C1/C(C)=NC(=S)NC1/C=C/c1ccccc1 (stereo not drawn)	0.847
C=CCSc1nc(N)cc(O)n1	-4.27
CC1CCc2c(sc(NC(=O)C3CCCCC3C(=O)O)c2C(N)=O)C1 (stereo not drawn)	-3.92
CCOC(=O)N1CCN(C(=O)C2c3cc(OC)c(OC)cc3C(=O)N3CCc4ccccc4C23)CC1 (stereo not drawn)	3.53
Cc1ccccc1C1C(C#N)=C(N)OC2=C1C(=O)CCC2 (stereo not drawn)	1.48
O=C(NCc1ccc(F)cc1)NCc1cccn1Cc1ccccc1	-3.52
Cn1cnc2c1c(=O)n(Cc1ccc(Br)cc1)c(=O)n2C	1.05
CCOc1cc(C2Oc3ccccc3C3CC(c4cccs4)=NN32)ccc1OC (stereo not drawn)	-5
CCc1ccc2nc(N(CCN(C)C)C(=O)c3ccc(C(C)=O)cc3)sc2c1	-1.95
CC(=O)N1CCN(CCc2ccccc2)CC1	1.62
NC(=O)c1ccccc1NC(=O)c1cccc(Cn2cc(Cl)cn2)c1	5.31
Cc1ccc(-c2c(N3CCCC3)c(=O)c2=O)cc1C	2.24
CCN(CC)CCN1C(=O)C(O)=C(C(=O)c2ccc(Cl)cc2)C1c1ccc(F)cc1 (stereo not drawn)	-6.43
O=C(NCCNC(=O)c1cccc(O)c1)c1cccc(O)c1	-5.2
COCC(=O)Nc1ccc(Oc2cc(Cl)c(Cl)cc2Cl)cc1	-2.63
CCOC(=O)c1cnn2c(N)c(C#N)cnc12	0.231
CSc1ccc2c3c(cccc13)C(=O)NC2=O	4.17
